{"source": "the CheMixHub viscosity set", "note": "± gives the uncertainty stated by the source. A number of entries come with more than one value. They are shown here; other results are not. The source may hold further records. Values that stand side by side are repeats across runs, samples, wells, individuals or studies. What stands in brackets tells the records apart. Letters count within one entry.", "data": [{"smiles": "CCCCN", "values": [{"measurement": "viscosity", "setting": "303.15 K, 101 kPa", "result": "0.4434 ± 0.0058 mPa·s [study A] and 0.443 ± 0.0054 mPa·s [study B] and 0.443 ± 0.005 mPa·s [study C] and 0.443 ± 0.009 mPa·s [study D] and 0.4378 ± 0.0054 mPa·s [study E] and 0.4493 ± 0.004 mPa·s [study F] and 0.5721 ± 0.007 mPa·s [study G]"}, {"measurement": "viscosity", "setting": "303.15 K, 101.33 kPa", "result": "0.501 ± 0.014 mPa·s [study A] and 0.501 ± 0.013 mPa·s [study B] and 0.4378 ± 0.0054 mPa·s [study C] and 0.464 ± 0.005 mPa·s [study D] and 0.4379 ± 0.004 mPa·s [study E]"}, {"measurement": "viscosity", "setting": "308.15 K, 101 kPa", "result": "0.4249 ± 0.044 mPa·s [study A] and 0.4249 ± 0.0058 mPa·s [study B] and 0.417 ± 0.0054 mPa·s [study C] and 0.421 ± 0.002 mPa·s [study D] and 0.3817 ± 0.01 mPa·s [study E]"}]}]}
